Here are results for 49 cell lines from the supplement of paper PMC4967469.

For orientation: IC50 means the point on the concentration scale where inhibition reaches its midpoint.

By IC50 is meant the dose at which the fit gives 50% viability; a fit beyond the top or the lowest dose is shown as a bound at that dose. For AUC the same curve is integrated over the 256-fold range of doses and scaled to a fraction; the more sensitive the line, the further below 1. Where only a bound is given, the exact number is not on record here.

Compound in the test: Cn1c(=O)n(-c2ccc(C(C)(C)C#N)cc2)c2c3cc(-c4cnc5ccccc5c4)ccc3ncc21 [NVP-BEZ235]
Put plainly: Viability of human cancer cell lines after 72 h of drug (GDSC screen). Here is the method: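 Human cancer cell lines in 384-well plates, medium with 10% serum, drug for 72 h over a 256-fold dose range (nine 2-fold or five 4-fold steps up to the top dose). Adherent lines were fixed and stained with the nucleic acid dye Syto60, suspension lines read with resazurin; signal relative to control wells, capped at 0 and 100%. One two-parameter sigmoid per drug and line, fitted in a mixed model over all curves with the slope shared within a line.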

Consider “ROS-50 (B-cell leukaemia, suspension, top dose 0.25 µM)”, for which the AUC came to 0.848 and the 50% inhibitory concentration (IC50) was above 250 nM.

Take “RPMI-2650 (head and neck, adherent, top dose 0.25 µM)”: the AUC is 0.681.

On to “RPMI-6666 (Hodgkin lymphoma, suspension, top dose 0.25 µM)”, for which the AUC stood at 0.646 and the IC50 was 43.2 nM.

Regarding “RPMI-7951 (melanoma, adherent, top dose 0.25 µM)”, the AUC came out at 0.543 and the IC50 is 20.4 nM. On to “RPMI-8226 (myeloma, suspension, top dose 0.25 µM)”, for which the AUC came out at 0.591 and the IC50 stood at 26.8 nM. Consider “RPMI-8402 (T-cell lymphoblastic leukaemia, suspension, top dose 0.25 µM)”, for which the AUC was 0.699 and the IC50 was 50.9 nM. Turning to “RPMI-8866 (chronic myeloid leukaemia, suspension, top dose 0.25 µM)”, the AUC is 0.505 and the IC50 was 16.2 nM. On the same counts, the results for “RS4-11 (leukaemia, suspension, top dose 0.25 µM)” are 0.647 and 38.3 nM. On to “RT4 (bladder, adherent, top dose 0.25 µM)”, for which the AUC was 0.964 and the IC50 is above 250 nM.

With “RVH-421 (melanoma, adherent, top dose 0.25 µM)”, the AUC is 0.687 and the IC50 was found to be 63.9 nM. As to “RXF393 (kidney, adherent, top dose 0.25 µM)”, the AUC turned out to be 0.616 and the 50% inhibitory concentration (IC50) was found to be 36.8 nM. Consider “Raji (Burkitt lymphoma, suspension, top dose 0.25 µM)”, for which the AUC turned out to be 0.84 and the half-inhibitory concentration (IC50) was 156 nM. Taken in the same sequence, the figures for “Ramos-2G6-4C10 (Burkitt lymphoma, suspension, top dose 0.25 µM)” were 0.355 and 6.63 nM. Taken in the same sequence, the figures for “SAS (head and neck, adherent, top dose 0.25 µM)” were 0.849 and 222 nM. On the same counts, the results for “SAT (head and neck, adherent, top dose 0.25 µM)” are 0.714 and 89.1 nM. Take “SBC-1 (small cell lung carcinoma, suspension, top dose 0.25 µM)”: the AUC came to 0.81 and the IC50 was determined as 125 nM.

In the case of “SBC-3 (small cell lung carcinoma, adherent, top dose 0.25 µM)”, the AUC was 0.691 and the IC50 is 50.5 nM.

With “SBC-5 (small cell lung carcinoma, adherent, top dose 0.25 µM)”, the AUC stood at 0.779 and the IC50 is 82.7 nM. With “SCC90 (head and neck, adherent, top dose 0.25 µM)”, the AUC turned out to be 0.902 and the IC50 was above 250 nM. On the same counts, the results for “SCC-9 (head and neck, adherent, top dose 0.25 µM)” are 0.854 and above 250 nM. In the case of “SCC-15 (head and neck, adherent, top dose 0.25 µM)”, the AUC is 0.753 and the IC50 is 110 nM. On the same counts, the results for “SCC-25 (head and neck, adherent, top dose 0.25 µM)” are 0.742 and 85.4 nM.

Take “SCH (stomach, adherent, top dose 0.25 µM)”: the AUC was determined as 0.693 and the IC50 was found to be 57.1 nM. Taken in the same sequence, the figures for “SF126 (glioma, adherent, top dose 0.25 µM)” were 0.616 and 33.3 nM.

For the cell line “SF268 (glioma, adherent, top dose 0.25 µM)”, the AUC was 0.805 and the IC50 is 139 nM.

In the case of “SF295 (glioma, adherent, top dose 0.25 µM)”, the AUC worked out at 0.536 and the IC50 is 19.8 nM. On the same counts, the results for “SF539 (glioma, adherent, top dose 0.25 µM)” are 0.694 and 51.4 nM.

Consider “SH-4 (melanoma, adherent, top dose 0.25 µM)”, for which the AUC came to 0.734 and the IC50 came to 108 nM. On the same counts, the results for “SHP-77 (small cell lung carcinoma, semi-adherent, top dose 0.25 µM)” are 0.965 and above 250 nM. On the same counts, the results for “SIMA (neuroblastoma, adherent, top dose 0.25 µM)” are 0.902 and above 250 nM. On the same counts, the results for “SISO (cervix, adherent, top dose 0.25 µM)” are 0.712 and 60.1 nM.

Take “SJRH30 (rhabdomyosarcoma, adherent, top dose 0.25 µM)”: the AUC turned out to be 0.824 and the IC50 is 156 nM.

For “SJSA-1 (bone, adherent, top dose 0.25 µM)”, the AUC stood at 0.621 and the IC50 came out at 35.2 nM. Taken in the same sequence, the figures for “SK-CO-1 (large intestine, adherent, top dose 0.25 µM)” were 0.872 and 214 nM. On the same counts, the results for “SK-ES-1 (Ewing sarcoma, semi-adherent, top dose 0.25 µM)” are 0.642 and 39.6 nM. Taken in the same sequence, the figures for “SK-GT-2 (stomach, adherent, top dose 0.25 µM)” were 0.445 and 10.9 nM.

In the case of “SK-GT-4 (oesophagus, adherent, top dose 0.25 µM)”, the AUC turned out to be 0.608 and the IC50 stood at 33.3 nM.

With “SK-HEP-1 (liver, adherent, top dose 0.25 µM)”, the AUC was 0.694 and the IC50 came out at 52.4 nM. For the cell line “SK-LMS-1 (soft tissue, adherent, top dose 0.25 µM)”, the AUC is 0.594 and the IC50 is 27.9 nM. Taken in the same sequence, the figures for “SK-LU-1 (lung adenocarcinoma, adherent, top dose 0.25 µM)” were 0.596 and 30.9 nM. “SK-MEL-1 (melanoma, suspension, top dose 0.25 µM)”: the AUC came out at 0.904 and the IC50 was above 250 nM. Taken in the same sequence, the figures for “SK-MEL-2 (melanoma, adherent, top dose 0.25 µM)” were 0.764 and 94.5 nM. Taken in the same sequence, the figures for “SK-MEL-3 (melanoma, adherent, top dose 0.25 µM)” were 0.852 and 242 nM. “SK-MEL-5 (melanoma, adherent, top dose 0.25 µM)”: the AUC is 0.727 and the IC50 was determined as 81.1 nM. On to “SK-MEL-28 (melanoma, adherent, top dose 2 µM)”, for which the AUC stood at 0.441 and the IC50 came out at 86.7 nM.

With “SK-MEL-31 (melanoma, adherent, top dose 0.25 µM)”, the AUC is 0.885 and the IC50 is above 250 nM. “SK-MES-1 (lung squamous cell carcinoma, adherent, top dose 0.25 µM)”: the AUC came out at 0.695 and the IC50 was 58.1 nM. “SK-MG-1 (glioma, adherent, top dose 0.25 µM)”: the AUC was found to be 0.535 and the IC50 worked out at 19.5 nM. Taken in the same sequence, the figures for “SK-MM-2 (myeloma, suspension, top dose 0.25 µM)” were 0.865 and 238 nM.
